In PubChem BioAssay AID1508642 (National Center for Advancing Translational Sciences (NCATS), 2021):
In all, about 43,000 compounds went through this assay and about 200 (0.47%) were called active. Inconclusive results (about 12%) are left out. The call rests on the fitted dose curve; in most records, active means well fitted cell-killing curve with a large enough effect; inconclusive means small, poorly fitted or top-dose-only effect, or effect the other way; inactive means flat fitted curve, though single readings scatter. The list shows a part of the results.

Experiment: Cell viability qHTS assay in S16 Pmp22-F2sN cells; further: nearly all actives have a fitted effect of over 65% in size
Conditions: S16 Pmp22-F2sN Schwann cells viability, CellTiter-Glo, 24 h; series mostly up to 57.5 µM; activity change, negative = cytotoxicity: at the top concentration
In short: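 Used to flag compounds lowering reporter output through toxicity, this quantitative HTS measures ATP-based CellTiter-Glo luminescence in S16 Pmp22-F2sN Schwann cells after 24 h compound exposure at 37C.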
On the % scale 0 is the no-effect control and ±100 the full control effect; potency means the concentration at half of the fitted maximal effect.

Compound | activity change, negative = cytotoxicity | Potency
O=c1cc(-c2ccccc2)n2c(SCc3ccccc3)nnc2[nH]1 | inactive: 13.4% | 
Cc1cccc(Cn2c(CNS(=O)(=O)c3ccc4c(c3)CCCC4)nc3cccnc32)c1 | inactive: -11.7% | 
COc1ccc(Cc2nc3ccccc3[nH]c2=O)cc1 | inactive: 3.68% | 
C=Cc1ccc(Cn2c(C)c(CNCc3cccc(Br)c3)c(C(=O)O)c2C)cc1 | inactive: 5.34% | 
COc1ccc(F)cc1S(=O)(=O)NCCc1csc2nc(-c3cccc(C)c3)nn12 | inactive: 0.364% | 
O=C(c1ccccc1Cl)N1c2ncnn2C2(CCCCC2)[C@@H]2CCCC[C@@H]21 | inactive: -12.9% | 
COC(=O)c1ccc(OCC2c3cc(OC)c(OC)cc3CCN2C(=O)COc2ccc(Cl)cc2)cc1 (stereo unspecified) | inactive: 5.79% | 
Cc1c(Cl)cccc1NC(=O)Cn1c(CCC(=O)O)ccc1-c1cccs1 | inactive: 9.18% | 
CCOC(=O)c1c(NC(C)=O)c2c3c(sc2n1Cc1nc(-c2cccc(Cl)c2)oc1C)CCCC3 | inactive: 9.9% | 
Cc1ccc2oc3c(c(=O)c2c1)C(c1ccc(F)cc1)N(Cc1ccc2c(c1)OCO2)C3=O (stereo unspecified) | inactive: 5.79% | 
CC(=O)c1cccc(NC(=O)c2sc(-n3nc(C)c(Cc4ccc5c(c4)OCO5)c3C)nc2C)c1 | inactive: -15.1% | 
COc1ccccc1CCNC(=O)C(=O)NCC(c1ccc2c(c1)OCO2)N1CCOCC1 (stereo unspecified) | inactive: -12.8% | 
CCOc1ccc(-c2cccc(NS(=O)(=O)c3c(C)cc(C)cc3C)c2)nn1 | inactive: -4.46% | 
CCN(C(=O)C1CCN(S(=O)(=O)c2ccc3c(c2)CCCN3C(C)=O)CC1)c1cccc(C)c1 | inactive: -9.65% | 
COc1cccc(CNC(=O)C(=O)Nc2c3c(nn2-c2ccccc2)CSC3)c1 | inactive: -9.04% | 
COC(=O)c1ccccc1NC(=O)CSc1nc2ccsc2c(=O)n1CCC(C)C | inactive: -3.82% | 
CCOc1cc(C(=O)NCCc2csc3nc(-c4ccc(C)cc4)nn23)cc(OCC)c1OCC | inactive: 1.63% | 
COc1ccc(OC)c(-c2nnc3n(Cc4ccc(C)cc4)c(=O)c4ccccc4n23)c1 | inactive: -3% | 
CC(C)(C)OC(=O)N1CCC(c2c(C(=O)N3CCCCC3)cnn2-c2ccc(Cl)cc2)CC1 | inactive: 7.2% | 
CCCOc1cccc(C(=O)N(Cc2ccc(C)o2)C2CCS(=O)(=O)C2)c1 (stereo unspecified) | inactive: -0.193% | 
CCCCN(CC)CCNC(=O)Cn1cc2c(n1)-c1c(oc(C(=O)N3CCCC3)c1C)CC2 | inactive: 7.62% | 
CN(C(=O)CSc1cn(CC(=O)N2CCOCC2)c2ccccc12)c1ccccc1 | inactive: 4.66% | 
CC(=O)N1CCCc2cc(S(=O)(=O)N3CCC(C(=O)NCc4cccc(C)c4)CC3)ccc21 | inactive: -0.473% | 
COc1cccc(Cn2c(=O)n(Cc3ccco3)c(=O)c3oc4ccccc4c32)c1 | inactive: -4.09% | 

Compound | activity change, negative = cytotoxicity | Potency
COC(=O)c1ccccc1NC(=O)c1c(NC(=O)c2ccco2)sc2c1CCC(C(C)(C)C)C2 (stereo unspecified) | inactive: -7.62% | 
COCCNc1sc(S(=O)(=O)c2ccc(C)cc2)nc1S(=O)(=O)c1ccc(C)cc1 | inactive: 8.55% | 
CC(=O)Nc1ccc(NC(=O)CSc2nccn2C)cc1 | inactive: 15.4% | 
CCCN(C(=O)c1noc2c1COc1ccc(C)cc1-2)c1ccc(Cl)c(Cl)c1 | inactive: 27.7% | 
CCOC(=O)c1cc2c(=O)n3ccccc3nc2n(CC(C)C)c1=NC(=O)c1c(-c2c(F)cccc2Cl)noc1C | inactive: -19% | 
CCc1nc(-c2cc(S(=O)(=O)N3CCN(c4ccccc4OC)CC3)ccc2OC)no1 | inactive: -1.38% | 
CCOC(=O)Cn1c(=O)c2c(nc3n2CCN3c2ccc(CC)cc2)n(C)c1=O | inactive: -3.23% | 
COc1cc(Cl)c(C)cc1Nc1ncnc2c1nc1n2CCCC1 | inactive: 18.7% | 
Cc1ccc(NC(=O)CC(C)S(=O)(=O)c2ccc3c(c2)NC(=O)CO3)cc1Cl (stereo unspecified) | inactive: 10.6% | 
Cc1nc2nc(SCC(=O)NCc3ccccc3Cl)nn2c(C)c1Cc1ccccc1 | inactive: -19.8% | 
CCOC(=O)c1cc(-c2ccccc2)n(-c2cccc(C(=O)Nc3ccc(OCC)cc3)c2)c1C | inactive: 9.69% | 
Cc1ccc(Nc2nn3c(=O)c4cc5c(cc4nc3s2)OCO5)cc1Cl | inactive: 4.87% | 
COc1ccc(Cl)cc1NC(=O)CN1C(=O)COc2ccc(S(=O)(=O)NC3CCCC3)cc21 | inactive: 7.72% | 
COCCCNC(=O)CSc1nc2cc(OC)c(OC)cc2c2nc(-c3ccccc3)nn12 | inactive: -1.88% | 
CS(=O)(=O)CCC(C(=O)Nc1cccc(C(F)(F)F)c1)N1Cc2ccccc2C1=O (stereo unspecified) | inactive: -10.4% | 
Cc1ccc(OCc2nc3ccccc3n2CCOc2ccc(Cl)cc2)cc1 | inactive: -11.3% | 
CC1CCCN(C(=O)c2cc3c(Cl)nc4ccccc4c3s2)C1 (stereo unspecified) | inactive: 0.339% | 
O=C(c1ccco1)c1cn(CCOc2ccc(F)cc2)c2ccccc12 | inactive: 1.54% | 
CCc1ccc(NC(=O)CCS(=O)(=O)c2ccc3c(c2)n(C)c(=O)c(=O)n3C)cc1 | inactive: 10.6% | 
CC(C)COc1ccc(C(=O)N(Cc2ccc(N(C)C)cc2)Cc2ccco2)cc1 | inactive: -6.07% | 
CC1CCCCN1c1nnc(NC(=O)Nc2ccccc2F)s1 (stereo unspecified) | inactive: -1.76% | 
CCC(Cn1nnc2ccccc2c1=O)NC(=O)Nc1ccc(C)c(C)c1 (stereo unspecified) | inactive: -9.19% | 
Cc1ccc(-c2nc(SCC(=O)NCc3ccco3)c3c(=O)n(C)c(=O)n(C)c3n2)cc1 | inactive: -22% | 
CC(C)c1ccc(NC(=O)Cn2c(=O)n(CCc3ccccc3)c(=O)c3ccccc32)cc1 | inactive: 3.08% | 

Compound | activity change, negative = cytotoxicity | Potency
CC(C)c1cccc(C(C)C)c1NC1=NS(=O)(=O)c2ccccc21 | inactive: -1.75% | 
O=C(Cc1ccccc1)Nc1cccc(-c2cn3cccnc3n2)c1 | inactive: 1.71% | 
Cc1ccc(Cn2c(=O)n(CCCC(=O)NCc3ccccc3Cl)c(=O)c3ccccc32)cc1 | inactive: -0.284% | 
COc1ccc(OC)c(NC(=O)c2c(NCc3cccs3)sc3c2CCCC3)c1 | inactive: 4.28% | 
COC(=O)c1cnc(N2CCN(c3ccccc3F)CC2)c2ccccc12 | inactive: 3.13% | 
Cc1ccc(NC(=O)C2CCN(c3nc4ccccc4[nH]3)CC2)c(C)c1 | inactive: 13.8% | 
COCCN1C(=O)c2[nH]nc(-c3cc(C)ccc3O)c2C1c1ccc(C(C)C)cc1 (stereo unspecified) | inactive: -0.0049% | 
CCc1ccccc1NC(=O)c1cc(S(=O)(=O)N2CCCC2)cn1C | inactive: 5.07% | 
Cc1cccc(N2CCN(C(=O)CCc3c(C)nc4ncnn4c3C)CC2)c1C | inactive: 3.97% | 
CCOc1ccccc1NC(=O)c1cc2c(=O)oc3ccccc3c2s1 | inactive: -4.97% | 
O=C(c1ccc(CSc2nc3ccncc3n2Cc2cccc(F)c2)cc1)N1CCCCCC1 | inactive: -0.942% | 
Cc1cncn1CCc1nc2c3ccccc3nc(SCC(=O)Nc3cccc(Cl)c3)n2n1 |  | active: 28.2 µM
Cc1ccc(CNS(=O)(=O)c2cc3c(cc2C)NC(=O)CO3)cc1 | inactive: -8.4% | 
COc1ccc(OC)c(NC(=O)CN2C(=O)COc3ccc(S(=O)(=O)NC4CCCC4)cc32)c1 | inactive: 10.5% | 
CN(CC(=O)Nc1cccc(C(F)(F)F)c1)S(=O)(=O)c1cccs1 | inactive: 4.28% | 
O=C(Cn1c(-c2cccs2)cc2ccccc21)NCCc1ccc(Cl)cc1 | inactive: -14.9% | 
CCOc1ccc(S(=O)(=O)Nc2ccc3c(c2)N(C(C)=O)CCC3)cc1 | inactive: 1.01% | 
Cc1nc2c(c(C)nn2-c2ccccc2)c(C)c1CCC(=O)NCCc1ccccc1 | inactive: -10% | 
Cn1nnc2c(NCc3ccccc3Cl)ncnc21 | inactive: -22.5% | 
CCCC(=O)Nc1nnc2n1CCS2 | inactive: 8.22% | 
O=C(CSc1nc2c(c(=O)[nH]1)CN(Cc1ccc3c(c1)OCO3)CC2)Nc1cccc(Cl)c1 | inactive: 5.49% | 
Cc1cccc(Cn2cc3c(=O)n(CC(=O)Nc4ccc(C)c(F)c4)nc-3c3cc(F)ccc32)c1 | inactive: 7.16% | 
COc1ccc(CC(=O)NCc2nc3cccnc3n2Cc2ccc(C)cc2)cc1OC | inactive: 5.53% | 
CCOC(=O)c1noc2ncnc(N3CCC(C)CC3)c12 | inactive: -17.1% | 

Compound | activity change, negative = cytotoxicity | Potency
CCOc1ccc(Oc2nc(NC)nc(N3CCOCC3)n2)nn1 | inactive: -4.41% | 
O=c1oc2ccc(Br)cc2cc1-c1csc(-c2ccccc2)n1 | inactive: 5.66% | 
CCOC(=O)c1cc(NC(=O)c2ccc(C)cc2)c(=O)n2c1oc1ccc(Cl)cc12 | inactive: 3.45% | 
Cc1ccc(N2CC(NC(=O)c3ccc(S(=O)(=O)N4CCCCC4)cc3)CC2=O)cc1 (stereo unspecified) | inactive: 2.95% | 
COC(=O)c1ccc(NC(=O)c2cc(=O)c3ccc(C)cc3o2)cc1 | inactive: -18% | 
COc1ccc(N2CC(NC(=O)c3cc4ccccc4o3)CC2=O)cc1OC (stereo unspecified) | inactive: 10.3% | 
CCc1cccc(NS(=O)(=O)c2c(C)nc3sc(CC)nn3c2=O)c1 | inactive: -17.3% | 
COc1cc(/C=C(\C#N)C(=O)Nc2ccc(C)cc2)ccc1OCc1cc(=O)n2nc(C)sc2n1 | inactive: -11.6% | 
Cc1ccc(NC(=O)Cn2c(=O)n(CCc3ccccc3)c(=O)c3c4c(sc32)CCCC4)c(C)c1 | inactive: 10.9% | 
CN(C(=O)C1=CC(c2ccc3c(c2)OCO3)=NS(=O)(=O)N1C)c1ccccc1 | inactive: 2.47% | 
Cc1ccc(-c2noc(CSc3nnc(Cc4ccccc4)n3-c3cccc(C)c3)n2)cc1 | inactive: -1.96% | 
O=C(NCC(c1cccnc1)N1CCc2ccccc2C1)C(=O)Nc1ccc(Cl)cc1 (stereo unspecified) | inactive: -23.2% | 
Cc1cc(C)c(NC(=O)Cn2c(=O)n(Cc3ccco3)c(=O)c3ccc(C(=O)NC4CCCC4)cc32)c(C)c1 | inactive: 13.6% | 
Cn1nnc2c(NCCc3ccccc3)ncnc21 | inactive: -11% | 
Cc1ccc(NC(=O)CSc2cn(CC(=O)N3CCCCCC3)c3ccccc23)cc1 | inactive: 1.58% | 
CC(=O)c1cccc(NC(=O)c2c(N3CCCC3=O)c3cc(F)ccc3n2C)c1 | inactive: 10.3% | 
CCOCCCNC(=O)C(c1ccc(C)cc1)N(Cc1cccs1)C(=O)c1ccc(NC(C)=O)cc1 (stereo unspecified) | inactive: -17% | 
CCSc1ncc(Cl)c(C(=O)Nc2c(C(=O)c3ccc(C)c(F)c3)oc3ccccc23)n1 | inactive: -9.93% | 
COc1ccccc1NC(=O)c1c(NC(=O)c2ccco2)sc2c1CCC(C(C)(C)C)C2 (stereo unspecified) | inactive: 18.5% | 
CC(C)c1ccc(NC(=O)c2cccc3c2C(=O)N(C2CCCCC2)C3)cc1 | inactive: -1.66% | 
Cc1ccc2c(c1)N(CC(=O)NCc1ccccc1Br)C(=O)c1cccnc1O2 | inactive: 0.374% | 
O=C(CCS(=O)(=O)c1nc(-c2ccc3c(c2)OCO3)cc(C(F)(F)F)n1)Nc1ccccc1F | inactive: 11.8% | 
CCc1cccc(-n2nnc(-c3nc(-c4ccccc4Cl)no3)c2N)c1 | inactive: 8.97% | 
COc1ccc(Nc2nc3ccccc3c3nnc(C)n23)cc1Cl | inactive: -3.13% | 
